Laboratory results from the supplement of paper PMC10126150.
Values marked as one replicate rest on one cluster of the flow cell; about a third of the high ones do not repeat.

test system: ATP; experiment: switch fluorescence ratio, 500 uM ATP over buffer (Cy3 cluster intensity, sum of 5 cycles each) (fold (ratio)); higher = stronger signal-on switching upon ATP binding; sequences stand for … in TCGTCGGCAGCGTCAGATGTGTATAAGAGACAGTTTTTTTTTTTTTTTTTTTTTTTTT…TC; settings: aptamer strand: ATP DNA aptamer (quencher-CACCTGGGGGAGTATTGCGGAGGAAGG + anchor), 100 nM annealed; ATP concentration: 500 uM; one replicate
Summary of the method: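 The quencher-labelled ATP aptamer, at 100 nM, was annealed to Cy3-labelled switching-strand clusters on a modified Illumina MiSeq flow-cell. The clusters were imaged in selection buffer, then after 15 min with 500 uM ATP at 22 °C, and this buffer/ATP cycle ran five times with NaOH stripping and re-annealing between runs. Per-cluster fluorescence ratios, summed target-cycle over summed buffer-cycle Cy3 intensity, were averaged per switch-domain sequence. Clusters outside 100-1000 RFU were excluded.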
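Also: ATP exposure 15 min at 22 °C before imaging.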

Q: How did the switch fluorescence ratio turn out when CTCACTACTG was run?
A: 1.03

Q: For CTCAGCCCGA, which switch fluorescence ratio is on record?
A: 1.09

Q: How did the switch fluorescence ratio turn out when CTCAGGAGGT was run?
A: 0.965

Q: For CTCAGGCA, which switch fluorescence ratio is on record?
A: 1.19

Q: With CTCAGGCATA as the sequence, how does the switch fluorescence ratio read?
A: 2.07

Q: Which switch fluorescence ratio does the source give for CTCAGGCTGT here?
A: 1.02

Q: With CTCAGGGGAT as the sequence, how does the switch fluorescence ratio read?
A: 1.1

Q: With CTCAGGTAGA as the sequence, how does the switch fluorescence ratio read?
A: 1

Q: CTCAGTAGAT was tested. Which switch fluorescence ratio did it give?
A: 1.02

Q: How did the switch fluorescence ratio turn out when CTCATACGTA was run?
A: 1.1

Q: How did the switch fluorescence ratio turn out when CTCATAGGAC was run?
A: 1.05

Q: With CTCATATCGG as the sequence, how does the switch fluorescence ratio read?
A: 1.03

Q: With CTCATCAAAC as the sequence, how does the switch fluorescence ratio read?
A: 2.41

Q: For CTCATCTGGT, which switch fluorescence ratio is on record?
A: 0.976

Q: For CTCATTAAAC, which switch fluorescence ratio is on record?
A: 1

Q: With CTCATTCGAT as the sequence, how does the switch fluorescence ratio read?
A: 1.04

Q: Which switch fluorescence ratio does the source give for CTCATTTAAT here?
A: 1.03

Q: CTCATTTTCC was tested. Which switch fluorescence ratio did it give?
A: 1.09

Q: For CTCCAACGG, which switch fluorescence ratio is on record?
A: 1.05

Q: How did the switch fluorescence ratio turn out when CTCCATCGTA was run?
A: 1.03

Q: Which switch fluorescence ratio does the source give for CTCCCAAAT here?
A: 2

Q: With CTCCCAAGGG as the sequence, how does the switch fluorescence ratio read?
A: 3.14

Q: With CTCCCCACTA as the sequence, how does the switch fluorescence ratio read?
A: 1.03

Q: CTCCCCTTTG was tested. Which switch fluorescence ratio did it give?
A: 1.41

Q: How did the switch fluorescence ratio turn out when CTCCCGTCTC was run?
A: 1.28

Q: For CTCCCGTTAT, which switch fluorescence ratio is on record?
A: 2.3

Q: For CTCCGTCGGT, which switch fluorescence ratio is on record?
A: 3.48

Q: Which switch fluorescence ratio does the source give for CTCCGTGCG here?
A: 1.66

Q: Which switch fluorescence ratio does the source give for CTCCTCAGTC here?
A: 1.73

Q: With CTCCTCATAT as the sequence, how does the switch fluorescence ratio read?
A: 3.53

Q: CTCCTCTCAC was tested. Which switch fluorescence ratio did it give?
A: 1.97

Q: For CTCCTCTTCT, which switch fluorescence ratio is on record?
A: 1.01

Q: For CTCCTGTACT, which switch fluorescence ratio is on record?
A: 1.87

Q: With CTCGAAGCGA as the sequence, how does the switch fluorescence ratio read?
A: 0.995

Q: How did the switch fluorescence ratio turn out when CTCGACCGTT was run?
A: 0.985

Q: CTCGAGGGGA was tested. Which switch fluorescence ratio did it give?
A: 1.05

Q: For CTCGATAAGG, which switch fluorescence ratio is on record?
A: 1

Q: How did the switch fluorescence ratio turn out when CTCGCACTA was run?
A: 2.69

Q: CTCGCCACGG was tested. Which switch fluorescence ratio did it give?
A: 1.16

Q: With CTCGCCTGTG as the sequence, how does the switch fluorescence ratio read?
A: 1.07

Q: How did the switch fluorescence ratio turn out when CTCGCTACTG was run?
A: 1.5

Q: For CTCGGAGATA, which switch fluorescence ratio is on record?
A: 1.04

Q: With CTCGGCAGGA as the sequence, how does the switch fluorescence ratio read?
A: 1.76

Q: CTCGGCTCTT was tested. Which switch fluorescence ratio did it give?
A: 1.04

Q: How did the switch fluorescence ratio turn out when CTCGGCTTCT was run?
A: 1.02

Q: With CTCGGGAAGT as the sequence, how does the switch fluorescence ratio read?
A: 0.983

Q: Which switch fluorescence ratio does the source give for CTCGGGCGGC here?
A: 0.941

Q: How did the switch fluorescence ratio turn out when CTCGGGGCGA was run?
A: 1.06

Q: For CTCGGGGGCG, which switch fluorescence ratio is on record?
A: 1.1

Q: CTCGTAGATG was tested. Which switch fluorescence ratio did it give?
A: 1.04

Q: For CTCGTCGGGA, which switch fluorescence ratio is on record?
A: 1

Q: With CTCGTGCGTG as the sequence, how does the switch fluorescence ratio read?
A: 1.01

Q: Which switch fluorescence ratio does the source give for CTCGTGGTTG here?
A: 0.988

Q: CTCGTGTCGT was tested. Which switch fluorescence ratio did it give?
A: 0.998

Q: How did the switch fluorescence ratio turn out when CTCGTGTTGT was run?
A: 0.945

Q: For CTCGTTATC, which switch fluorescence ratio is on record?
A: 1.14

Q: CTCTAAGAGC was tested. Which switch fluorescence ratio did it give?
A: 1.04

Q: CTCTACCCGG was tested. Which switch fluorescence ratio did it give?
A: 1.25

Q: With CTCTACGAGT as the sequence, how does the switch fluorescence ratio read?
A: 1.01

Q: How did the switch fluorescence ratio turn out when CTCTACGGGT was run?
A: 0.981

Q: How did the switch fluorescence ratio turn out when CTCTACTGA was run?
A: 1.06

Q: Which switch fluorescence ratio does the source give for CTCTAGCTGC here?
A: 2.68

Q: For CTCTAGGCTA, which switch fluorescence ratio is on record?
A: 1.07

Q: How did the switch fluorescence ratio turn out when CTCTATTCGG was run?
A: 1.01

Q: For CTCTCACGGC, which switch fluorescence ratio is on record?
A: 1.31

Q: For CTCTCAGGGT, which switch fluorescence ratio is on record?
A: 1.13

Q: How did the switch fluorescence ratio turn out when CTCTCCATTC was run?
A: 1.24

Q: For CTCTCGCTTA, which switch fluorescence ratio is on record?
A: 2.41

Q: Which switch fluorescence ratio does the source give for CTCTGAGAAG here?
A: 1.04

Q: For CTCTGCACGG, which switch fluorescence ratio is on record?
A: 3.96

Q: For CTCTGGCGAA, which switch fluorescence ratio is on record?
A: 1.43

Q: Which switch fluorescence ratio does the source give for CTCTGGTC here?
A: 0.979

Q: For CTCTTAAACT, which switch fluorescence ratio is on record?
A: 0.97

Q: How did the switch fluorescence ratio turn out when CTCTTAAAGC was run?
A: 1.12

Q: Which switch fluorescence ratio does the source give for CTCTTAGAGG here?
A: 1.02

Q: Which switch fluorescence ratio does the source give for CTCTTCAGTG here?
A: 1.04

Q: For CTCTTCGATG, which switch fluorescence ratio is on record?
A: 1.01

Q: CTCTTCTTGG was tested. Which switch fluorescence ratio did it give?
A: 0.965

Q: With CTCTTTATGT as the sequence, how does the switch fluorescence ratio read?
A: 1.02

Q: Which switch fluorescence ratio does the source give for CTGAAAGT here?
A: 0.956

Q: Which switch fluorescence ratio does the source give for CTGAACCTGT here?
A: 0.992

Q: With CTGAACGTTG as the sequence, how does the switch fluorescence ratio read?
A: 1.15

Q: With CTGAACTCAC as the sequence, how does the switch fluorescence ratio read?
A: 1.17

Q: How did the switch fluorescence ratio turn out when CTGAAGGATA was run?
A: 1.03

Q: CTGAAGGGTC was tested. Which switch fluorescence ratio did it give?
A: 0.969

Q: CTGAAGTAGG was tested. Which switch fluorescence ratio did it give?
A: 1.09

Q: Which switch fluorescence ratio does the source give for CTGACAGATC here?
A: 1.09

Q: With CTGACAGG as the sequence, how does the switch fluorescence ratio read?
A: 1.37

Q: For CTGACAGGTT, which switch fluorescence ratio is on record?
A: 1.84

Q: CTGACCTTGC was tested. Which switch fluorescence ratio did it give?
A: 1.9

Q: With CTGACTGGGC as the sequence, how does the switch fluorescence ratio read?
A: 1.26

Q: Which switch fluorescence ratio does the source give for CTGACTGTT here?
A: 1

Q: Which switch fluorescence ratio does the source give for CTGACTTGGA here?
A: 0.993

Q: How did the switch fluorescence ratio turn out when CTGACTTGTC was run?
A: 1

Q: How did the switch fluorescence ratio turn out when CTGACTTTAA was run?
A: 1.03

Q: For CTGAGAACGT, which switch fluorescence ratio is on record?
A: 1.03

Q: CTGAGCCCAG was tested. Which switch fluorescence ratio did it give?
A: 1.05

Q: CTGAGGCGCG was tested. Which switch fluorescence ratio did it give?
A: 0.979

Q: Which switch fluorescence ratio does the source give for CTGAGGGACA here?
A: 1

Q: CTGAGTGTTG was tested. Which switch fluorescence ratio did it give?
A: 1

Q: With CTGATATGGG as the sequence, how does the switch fluorescence ratio read?
A: 1
